This is one part of the list. These are noisy estimates, calculated here from bound and input reads.

The target in the assay is T1, Pho4 (S. cerevisiae) (UniProt P07270).
T1 sequence: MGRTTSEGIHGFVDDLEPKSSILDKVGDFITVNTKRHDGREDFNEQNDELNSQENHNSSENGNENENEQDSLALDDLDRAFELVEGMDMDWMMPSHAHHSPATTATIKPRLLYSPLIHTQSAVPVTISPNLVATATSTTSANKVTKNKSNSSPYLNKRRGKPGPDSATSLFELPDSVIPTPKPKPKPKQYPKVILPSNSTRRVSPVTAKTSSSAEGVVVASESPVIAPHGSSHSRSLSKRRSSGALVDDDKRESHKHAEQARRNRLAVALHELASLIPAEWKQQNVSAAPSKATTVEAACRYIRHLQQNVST
Put plainly: relative binding free energy (BET-seq); higher = weaker binding. The conditions noted are these: reference: library average.
With ACGGTCACGTGGCTTG, the “relative binding free energy” value was -0.05 kcal/mol.
Consider TGTTACACGTGGCATT, for which the “relative binding free energy” value was -0.05 kcal/mol.
On to TTGGACACGTGGGAAA, for which the “relative binding free energy” value was 0.08 kcal/mol.
For the sequence ATAGTCACGTGTTGAA, the “relative binding free energy” value was determined as 0.04 kcal/mol.
As for GTGCACACGTGGCGGT, the “relative binding free energy” value stood at 0.01 kcal/mol.
The figure for GTGGGCACGTGCATTC is 0.07 kcal/mol.
The result for GTAGCCACGTGTGAGG reads 0.04 kcal/mol.
The result for GGAATCACGTGAGTTA reads 0.26 kcal/mol; that for GGTAGCACGTGCGTGT, -0.12 kcal/mol.
Consider CAGGTCACGTGTAAGG, for which the “relative binding free energy” value amounted to 0.23 kcal/mol.
The figure for GTTAACACGTGCTAGG is -0.04 kcal/mol; for AGTAGCACGTGATTTG it is 0.09 kcal/mol.
The figure for AAAGACACGTGAGTTG is 0.28 kcal/mol; for GCGTCCACGTGTGGGA it is 0.12 kcal/mol.
The figure for GTTTTCACGTGAATAC is 0.58 kcal/mol; for AGTGCCACGTGTGATT it is 0.01 kcal/mol; for AGGGACACGTGCGTTA it is -0.05 kcal/mol.
Consider AGTGACACGTGTGATG, for which the “relative binding free energy” value came out at 0.02 kcal/mol.
The result for CTGGACACGTGGGATT reads 0.14 kcal/mol; that for GGTTACACGTGGGTCC, 0.11 kcal/mol; that for ATTATCACGTGCGTGA, 0 kcal/mol.
The figure for AGGTTCACGTGTTAAA is 0.35 kcal/mol; for ATGGTCACGTGGCCTG it is -0.08 kcal/mol.
The figure for GATGGCACGTGGGGCG is -0.18 kcal/mol; for TGCGTCACGTGTAGAG it is -0.05 kcal/mol.
Take TATGTCACGTGTTATC: the “relative binding free energy” value stood at 0.19 kcal/mol.
The result for TGTACCACGTGTGGGG reads -0.11 kcal/mol; that for GTCTACACGTGAGAGT, 0.46 kcal/mol; that for TATCTCACGTGTGGTG, 0.17 kcal/mol.
The result for TGGCTCACGTGAAGAG reads 0.39 kcal/mol; that for AAGGACACGTGTTTAG, 0.08 kcal/mol.
The figure for GGTGACACGTGGCTGT is -0.06 kcal/mol; for CGGTTCACGTGATATT it is 0.31 kcal/mol; for TTGTTCACGTGTTTTC it is 0.28 kcal/mol.
With GTCCGCACGTGTGGGG, the “relative binding free energy” value turned out to be 0.04 kcal/mol.
The figure for TCTGTCACGTGAGTGG is 0.17 kcal/mol; for TATGGCACGTGTATAT it is -0.09 kcal/mol.
The figure for TTTAGCACGTGTTCGA is -0.11 kcal/mol; for GTAGGCACGTGTGATA it is -0.03 kcal/mol.
Consider AGTATCACGTGGTCGG, for which the “relative binding free energy” value is 0.08 kcal/mol.
The result for AATTGCACGTGTATGA reads 0.04 kcal/mol; that for CTCTGCACGTGTATTG, 0.01 kcal/mol; that for TTGGTCACGTGATTTA, 0.19 kcal/mol.
Turning to TTCTTCACGTGGTGTA, the “relative binding free energy” value was determined as 0.12 kcal/mol.
The result for TGGTACACGTGTGGGA reads 0.03 kcal/mol.
For the sequence AAGAGCACGTGATTGT, the “relative binding free energy” value amounted to 0.04 kcal/mol.
The result for GGAATCACGTGGGAGA reads 0.09 kcal/mol; that for GAGCGCACGTGGTGGC, -0.12 kcal/mol; that for TGCAACACGTGTAGTG, 0 kcal/mol.
The figure for ATAGGCACGTGGACGT is -0.14 kcal/mol; for ATAGACACGTGGTTGT it is -0.12 kcal/mol; for CGGGTCACGTGCGTTA it is 0.07 kcal/mol.
As for TTCTGCACGTGTAGGG, the “relative binding free energy” value amounted to 0.13 kcal/mol.
The figure for GGGGCCACGTGATGAT is 0.21 kcal/mol; for CATGGCACGTGTTTAG it is 0.03 kcal/mol; for TCTGACACGTGTGGAG it is 0.01 kcal/mol.
The result for ATGATCACGTGCAGTG reads 0.21 kcal/mol; that for GTTGTCACGTGGCGTT, 0.04 kcal/mol.
The result for TGTTTCACGTGGACTG reads 0.23 kcal/mol.
On to GTGTTCACGTGCAGAG, for which the “relative binding free energy” value is 0.25 kcal/mol.
The figure for TCGTTCACGTGTTGTG is 0.2 kcal/mol; for GCGTTCACGTGGTTTT it is 0.37 kcal/mol.
For the sequence ACAGTCACGTGGGAAG, the “relative binding free energy” value turned out to be 0.08 kcal/mol.
The figure for TGGGACACGTGTTGCT is -0.18 kcal/mol; for TATCGCACGTGGGAGT it is -0.19 kcal/mol; for GGTTTCACGTGTAAAA it is 0.27 kcal/mol.
For GGGTGCACGTGGGGAA, the “relative binding free energy” value was -0.03 kcal/mol.
On to CTGTGCACGTGGGTAG, for which the “relative binding free energy” value was -0.15 kcal/mol.
The figure for TCTTTCACGTGAAGGA is 0.54 kcal/mol.
With GAATGCACGTGGGTGA, the “relative binding free energy” value was -0.15 kcal/mol.
The result for GTATACACGTGTGTTA reads 0.04 kcal/mol; that for TAAGTCACGTGCTGTG, 0.21 kcal/mol; that for ATTTTCACGTGCAGGA, 0.25 kcal/mol.
The result for GGAATCACGTGGGACT reads 0.32 kcal/mol; that for ATTTCCACGTGTTATT, 0.16 kcal/mol.
The result for TGTTGCACGTGCCGTG reads -0.21 kcal/mol.
On to GTATTCACGTGGTACG, for which the “relative binding free energy” value came to 0 kcal/mol.
TGTGCCACGTGTTAGA: the “relative binding free energy” value was -0.08 kcal/mol.
The result for TGCGACACGTGCGGGT reads 0.08 kcal/mol.
Take AGGCTCACGTGGGCAG: the “relative binding free energy” value came out at 0.06 kcal/mol.
The result for TTGGACACGTGAATTT reads 0.32 kcal/mol.
As for TTTTACACGTGGGACG, the “relative binding free energy” value was found to be 0.02 kcal/mol.
The figure for CTTGTCACGTGGCGGT is 0 kcal/mol.
The result for GTGCGCACGTGGTGGG reads -0.18 kcal/mol.
For GGGAACACGTGGAGGG, the “relative binding free energy” value is 0.01 kcal/mol.
As for AATATCACGTGTTTCT, the “relative binding free energy” value was 0.09 kcal/mol.
The figure for TTATACACGTGACGGT is 0.08 kcal/mol.
Regarding TTGTACACGTGTACTG, the “relative binding free energy” value was 0.15 kcal/mol.
The figure for GCTGGCACGTGCCGGG is -0.09 kcal/mol.
With TTTTGCACGTGCGAAT, the “relative binding free energy” value is -0.04 kcal/mol.
As to TCGTTCACGTGTGTTG, the “relative binding free energy” value came to 0.2 kcal/mol.
The result for GGCTACACGTGTTTTA reads 0.21 kcal/mol; that for TGAAACACGTGGGGAT, -0.17 kcal/mol; that for GTTATCACGTGAGCTG, 0.37 kcal/mol.
The figure for GTGTACACGTGGTATG is -0.02 kcal/mol; for CTCGGCACGTGATGTG it is -0.11 kcal/mol; for TCTGTCACGTGTATGG it is 0.02 kcal/mol.
The figure for ATTGTCACGTGTTAGC is 0.05 kcal/mol.
Regarding TTGCTCACGTGGGATT, the “relative binding free energy” value is 0 kcal/mol.
The result for GTGTTCACGTGGTCTT reads 0.21 kcal/mol; that for AGAGGCACGTGCGTGT, -0.19 kcal/mol; that for CGTGCCACGTGATGGT, 0.12 kcal/mol.
Turning to TAGGTCACGTGCTGAT, the “relative binding free energy” value worked out at 0.05 kcal/mol.
The result for ATGGACACGTGAGGTA reads 0.21 kcal/mol; that for GCTGACACGTGTTAGG, 0.27 kcal/mol; that for TGAAGCACGTGTGGCA, -0.09 kcal/mol.
The result for GGAGGCACGTGGTTAA reads -0.07 kcal/mol; that for TTGAGCACGTGATTTT, 0.21 kcal/mol.
The figure for CTTGACACGTGTGTAG is 0.07 kcal/mol; for TTTGGCACGTGTAGTT it is 0.02 kcal/mol.
Take TAGGCCACGTGAGTGT: the “relative binding free energy” value is 0.13 kcal/mol.
For GGTGCCACGTGTGTTA, the “relative binding free energy” value was determined as 0 kcal/mol.
The figure for GGGCGCACGTGGCGGG is -0.05 kcal/mol; for GATATCACGTGTGGAG it is 0.08 kcal/mol.
The figure for ATAATCACGTGGGTTA is -0.06 kcal/mol.
